Biological target: Vif-A3G interaction (Human immunodeficiency virus type 1 group M subtype B, UniProt P12504)
Conditions: 293T cells, 1250 nM, 40 h, co-immunoprecipitation

Sequence of UniProt P12504 (P12504 whole entry): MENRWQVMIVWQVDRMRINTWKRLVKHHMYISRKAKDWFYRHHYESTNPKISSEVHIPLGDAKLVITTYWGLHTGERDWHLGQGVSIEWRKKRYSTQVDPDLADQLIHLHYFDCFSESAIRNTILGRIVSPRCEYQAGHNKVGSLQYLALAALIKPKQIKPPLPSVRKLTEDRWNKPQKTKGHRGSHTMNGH

## COc1cc(-c2ccc(Nc3ccccc3C(=O)O)c(OC)c2)ccc1Nc1ccccc1C(=O)O [redoxal]
  effect on Vif-A3G interaction in cells: did not reveal any significant effect

— PMC4567410 (Virology, 2015)
